According to PubChem BioAssay AID652104 (National Center for Advancing Translational Sciences (NCATS), 2013):
The campaign covered roughly 410,000 compounds. About 7,200 (1.8%) were called active. The shares of active, inactive and inconclusive entries below differ from those in the screen. Calls follow the shape of the dose curve; as a rule, active = well fitted activation curve with a large enough effect; inconclusive = small, poorly fitted or top-dose-only effect, or another doubt; inactive = no such curve, though single readings can be large or run the other way. Potencies beside an inconclusive call are fits to weak or partial responses and may not hold up.

Experiment: qHTS of TDP-43 Inhibitors; also: nearly all actives have a fitted effect of over 50% in size; as to growth rescue (activation): % of control where 0% means no effect
Conditions: TDP-43 expressing yeast growth rescue, BacTiter-Glo, 24 h; growth rescue (activation): at 46.1 µM (top of the series) unless noted
Method in brief: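 Yeast cells expressing TDP-43 under galactose induction are exposed to compounds for 24 hr at 30 deg C. BacTiter-Glo luminescence measures growth, so protective compounds score as activators.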
Potency is read from the fitted curve at half-maximal effect; tags tell the direction and shape of the fitted curve.

Potency, inactive:
O=C(c1cccc(Oc2ccc([N+](=O)[O-])cc2)c1)N1CCOCC1
COC(=O)C1=C(C)NC(C)=C(C(=O)O[C@@H]2CCCN(Cc3ccccc3)C2)[C@@H]1c1cccc([N+](=O)[O-])c1
Cc1ccc(C)c(NC(=O)C(=O)NCCc2csc(-c3cccc(F)c3)n2)c1
Cc1cccc(C)c1OCC(=O)N(Cc1ccc(Cl)cc1)CC1CCCO1 (configuration not stated)
COc1ccc(/C=N/NC(=O)c2ccoc2C)cc1OC
COC(=O)c1ccc(OC)c(CN2CCCN(Cc3ccc(C)cc3)S2(=O)=O)c1
COc1ccc(S(=O)(=O)NCCc2cn3ccsc3n2)cc1OC
CCOC(=O)c1ccc(-n2c(CCC(=O)O)ccc2-c2cccs2)cc1
CCOc1ccc(-c2cc(NC(=O)c3ccc(C)cc3)c(C(=O)OC)s2)cc1
CC(C)C[C@H](NC(=O)OC(C)(C)C)c1nnc(SCc2ccccc2)o1
COC(CNC(=O)c1c[nH]c2ccc(S(=O)(=O)N3CCOCC3)cc2c1=O)OC
CCc1ccc(CNC(=O)c2ccc3nc(C(C)C)oc3c2)cc1
Cc1cccc(N2CCN(C(=O)c3cc4c(=O)n(C)c5ccccc5c4s3)CC2)c1C

Potency, active:
COc1ccc(N2CCN(C(=O)Cc3noc4ccc(C)cc34)CC2)cc1 11.2 µM
COc1cc2c(C(=O)N3CCN(c4ccc(C)cc4)C(C)C3)cn(CC(C)C)c(=O)c2cc1OC (configuration not stated) 35.5 µM
O=C(O)c1cc2c(s1)-c1ccccc1OC2 31.6 µM
Cc1ccc(C2CC(=O)Nc3c2ccc2ccccc32)cc1[N+](=O)[O-] (configuration not stated) 25.1 µM
CCCCC[C@H](O)/C=C/C1C(=O)C=C[C@H]1C/C=C\CCCC(=O)OC (some centres not stated) 28.2 µM
COc1ccc(NC(=O)c2ccc(-c3ccccc3C(F)(F)F)o2)cc1 12.6 µM

Potency, inconclusive:
Cc1cc(Nc2ccc(F)cc2Cl)n2ncnc2n1 11.2 µM [activator, partial curve]
CC(Nc1nc(-c2ccc3c(c2)NC(=O)CO3)cs1)c1ccccc1 (configuration not stated) 14.1 µM [activator, single point]
COc1ccc(/C=C/c2nc(C#N)c(NC3CCCCC3)o2)cc1OC 17.8 µM [activator, single point]
S=c1[nH]nc(C2CCCCC2)n1/N=C/c1ccc(Br)s1 3.16 µM [activator, full curve]
COc1ccc(C(=O)/C=C/C(=O)N(CC(=O)NC2CCCCC2)Cc2ccccc2OC)c(O)c1 1.12 µM [activator, full curve, poor fit]
O=C(c1ccccc1)N1CCN(Cc2cccc(Oc3ccccc3)c2)CC1 31.6 µM [activator, single point]
O=C(Nc1ccccc1C(=O)Nc1ccccn1)c1cc(F)c(F)cc1Cl 35.5 µM [activator, single point]
COc1cccc(NC(=O)CCc2nc(-c3cc(OC)c(OC)c(OC)c3)no2)c1 35.5 µM [activator, partial curve]
COc1cccc(NC=C2C(=O)OC(C)(C)OC2=O)c1 11.2 µM [activator, partial curve]
COCCn1c(SCC(=O)N2CCc3ccccc32)nc2c(c1=O)SC(C)C2 (configuration not stated) 35.5 µM [activator, partial curve]
S=C(Nc1ccc(Cl)cc1)c1nc2ccccc2[nH]1 35.5 µM [activator, partial curve]
CC1CN(c2ccc(C(F)(F)F)cc2[N+](=O)[O-])CCN1S(C)(=O)=O (configuration not stated) 14.1 µM [activator, partial curve]
C=CCN1C(=O)C(Cc2ccc(OC)cc2)SC1=Nc1ccc(C(=O)O)cc1 (configuration not stated) 14.1 µM [activator, single point]
CCOc1ccccc1C1CC(=O)NC(C)=C1C(=O)OCc1ccc(C)cc1 (configuration not stated) 6.31 µM [activator, single point]
Cc1ccc(S(=O)(=O)n2nc(-c3cccnc3)nc2N)cc1 15.8 µM [activator, partial curve]
CCOC(=O)c1csc(NC(=O)COc2ccc(Cl)cc2Cl)n1 20 µM [activator, partial curve]
Cc1ccccc1OCC(=O)Nc1ccccc1CO 11.2 µM [activator, partial curve]
CC1CC(C)CN(C(=O)CNC(=O)c2sc3ccccc3c2Cl)C1 (configuration not stated) 28.2 µM [activator, single point]
Cc1cc(C)nc(SCc2csc(-c3ccccc3)n2)n1 35.5 µM [activator, single point]
O=c1/c(=C\c2ccc3c(c2)OCO3)sc2n1CCCN=2 11.2 µM [activator, single point]
Cn1cc(Br)c(C(=O)N2CCN(c3cccc(Cl)c3)CC2)n1 35.5 µM [activator, single point]
CCN1C(=O)[C@@H]2[C@@H](c3ccc(-c4ccc(Cl)c(Cl)c4)c(OC)c3)N3CCC[C@@]3(C(=O)OC)[C@@H]2C1=O 31.6 µM [activator, single point]
O=C(C(=O)N1CCN(c2cccc(Cl)c2)CC1)c1c[nH]c2ccccc12 22.4 µM [activator, single point]
CC1(c2ccc([N+](=O)[O-])cc2)Nc2ccccc2S1 (configuration not stated) 6.31 µM [activator, single point]
COc1ccc(C(=O)Nc2ccc(N3CCCC3)cc2)cc1Br 11.2 µM [activator, partial curve]
O=C(Cn1cnc2c(cnn2-c2ccccc2)c1=O)N1CCOCC1 0.355 µM [activator, partial curve, poor fit]
O=C1c2ccccc2C(=O)C1Cc1cccc2ccccc12 15.8 µM [activator, single point]
CC(C)C1CCN(C(=O)C2CCC(=O)N(CCc3ccc(Cl)cc3)C2)CC1 (configuration not stated) 12.6 µM [activator, partial curve]
CCCCN=C(NNc1ccc(Br)cc1)C(=O)OCC 35.5 µM [activator, single point]
Cc1ccc(-c2noc(CSc3nnc(-c4ccccc4)n3C)n2)cc1 17.8 µM [activator, single point]
O=C(c1ccc([N+](=O)[O-])cc1)N1CCSC1c1ccc(Br)cc1 (configuration not stated) 35.5 µM [activator, single point]
CC(C)CNC(=O)c1ccccc1SCC(=O)NC12CC3CC(CC(C3)C1)C2 15.8 µM [activator, partial curve]
CC(C)Cc1cc(C(=O)Nc2ccc(Br)cc2)no1 7.08 µM [activator, partial curve]
Nn1c(C2CCCCC2)nc2ccccc2c1=O 12.6 µM [activator, single point]
O=C(COc1ccc(Cl)cc1)N1CCN(c2ccc([N+](=O)[O-])c(N3CCOCC3)c2)CC1 11.2 µM [activator, partial curve]
Cc1ccccc1CN1C(=O)c2ccccc2C1c1nnnn1-c1ccc2c(c1)OCCO2 (configuration not stated) 8.91 µM [activator, partial curve]
Cc1nn(-c2ccccc2)c(N)c1N=Nc1ccc2ccccc2c1 25.1 µM [activator, single point]
Cc1nn(-c2nc(-c3ccc(F)cc3)cc(C(F)(F)F)n2)c(C)c1Cl 14.1 µM [activator, partial curve]
Cn1ccc2c(OCC(=O)NCc3ccccc3Cl)cccc2c1=O 1 µM [activator, full curve, poor fit]
COc1ccc([C@@H]2CC=C(C(=O)O)[C@H](c3ccc(F)cc3)N2S(=O)(=O)c2ccccc2C)cc1 35.5 µM [activator, single point]
CCNC(=O)c1cc2c(c(-c3cccc(-c4ccccc4F)c3)n1)[C@@H](CCO)N(C(=O)CC1CC1)C2 22.4 µM [activator, single point]
COc1ccc(S(=O)(=O)NCc2ccco2)c2ccccc12 31.6 µM [activator, single point]
Cc1ccc([N+](=O)[O-])cc1S(=O)(=O)N1CCCC1 35.5 µM [activator, single point]
CC(=O)C1(C)C(=O)N(c2ccc(C)cc2)C(=O)N1c1ccc(C)cc1 (configuration not stated) 22.4 µM [activator, single point]
Nc1ccn(CC(=O)NCc2ccccn2)c(=O)n1 35.5 µM [activator, partial curve]
CCC1CCCCN1C(=O)CSc1nc2c([nH]c3ccccc32)c(=O)n1-c1cccc(OC)c1 (configuration not stated) 35.5 µM [activator, partial curve, poor fit]
Cc1oc(-c2cccc(Cl)c2)nc1CSc1nc2ncccc2[nH]1 0.891 µM [activator, full curve, poor fit]

Growth rescue (activation), inconclusive:
COc1ccc(C(C#N)=C2C=CC(=NO)C=C2)cc1 -67.9% [activator]
